B1: LINE1-full (parent)
chain: UACGUAGGUGGUUUUCCCCUGAUAGUGCUAAGGGGGCCUGGAAGUUUGGACUGGGCAGAGCUCAACACAGCGUGGCAAAGUGGCUGUGGCUAGACUGCCUCUCUGGAUUCCUCGUCACUCAGCAGGGCAUCUCUGAGAGAAAUGCC

The source gives no read counts; variants with many changes may rest on few reads.

In the series the parent is B1. The series is described as follows: self-cleavage, relative activity (ratio to wild type); higher = more cleavage; in vitro, sequencing; the parent is a self-cleaving ribozyme.
As for G34U A43G U115A, the self-cleavage worked out at 1.2. Regarding G35C A79G U81A A92C U109A, the self-cleavage came to 0.39. Regarding G32A G80A U132C, the self-cleavage was found to be 1.9. Under G34U U81C U85C stands 0. G35C U100C U115C: the self-cleavage amounted to 1.15. G34A G54A A59G: the self-cleavage was determined as 0.26. G34C U96A C113U: the self-cleavage is 0.14. A31U A64G C111U A140G: the self-cleavage was found to be 0.29.

Regarding G35U U47A A69G A121U A141G, the self-cleavage was determined as 0.22. Take G34A U62C U112C: the self-cleavage was determined as 0.06. With G34U U47C A124G, the self-cleavage came out at 1.47.

Take A31U A77U A94G: the self-cleavage was 0.19. With A31G G60U C113U, the self-cleavage was determined as 0.04. With G33A A43G U62C A69G U104C, the self-cleavage amounted to 0.

As for G34U U46C A124G, the self-cleavage amounted to 2.04.

A31U A59U U73A U85C U100C U112C: the self-cleavage was 0. With G33C G93U A121G, the self-cleavage stood at 0.25. For A31U U46C U73G, the self-cleavage worked out at 1.23. On to G35U G74A U87C U132C, for which the self-cleavage is 0.08. Under G34A U46A U91A A138G stands 0.39; under G35A C90U U102C U132C A142G, 0.03; under G35A U52A A59G A141G, 0.07. Under G33A C37A U91G A124U stands 0.02; under G32A G97A C110U G127C U132C, 0.27; under A31U U39C A57U U85C, 0.51. Consider G34A U104C G135A A140G, for which the self-cleavage was 1.83. Take G35U A57U G105U: the self-cleavage came to 0.14. Under A31U C56U A77G A138U stands 0.62; under G33C A117G G127C A136G, 0.48; under A31U U52A A78G G97A, 0.23.

With G33U A57G U62A U96C, the self-cleavage is 0. Under G32A U73A U119A stands 1.47; under G33A U81A G126U, 1.67. As for A31G A43G G105U U115C A138G, the self-cleavage amounted to 1.6. Regarding A31U A67G U134C A142G, the self-cleavage was determined as 1.53. Regarding A31U U96G U104A A129U U132A, the self-cleavage was found to be 0.05.

As for G33C G70A U109C G127A U143C, the self-cleavage is 0.07. In the case of A31G U81C A121U, the self-cleavage is 0.95. With G35A A117G A121G, the self-cleavage is 2.01. For G35C C63U A129G G135A, the self-cleavage was found to be 0.24. In the case of A31U U100C U104C A117U A136G A142G, the self-cleavage was found to be 1.31. As to G32A A121U A138G, the self-cleavage is 1.52. For the variant G32A U47C U100C A138U A141G, the self-cleavage stood at 0.51. As to G35A U39C A43G, the self-cleavage stood at 1.33. Under A31G A140G U143C stands 2.16.

On to G32U G60A C123G, for which the self-cleavage was determined as 0.06.

Consider A31G G40A U143C, for which the self-cleavage worked out at 0.92. Then G35U A92U U102A, with 0.57. G33A G125A U143C: the self-cleavage worked out at 1.37. Then A31U U73C G135A A138G, with 0. Under A31G A64U U115C U130C stands 1.31. As for A31G A67G U119C, the self-cleavage is 1.53.

Take G34A U45C A67G C84U U100A: the self-cleavage worked out at 0.

As for G35A A43G U46C G55C A67G U73C U119A, the self-cleavage amounted to 0. As for G33U A57U A78G U102C, the self-cleavage came to 0.08. A30U U73A A79G U143C: the self-cleavage was 0.43. Take A31U A67U U130G: the self-cleavage was found to be 0.06.

Regarding A31G U46C A67U, the self-cleavage was determined as 0.54. Then A30U U112C U132C, with 1.18; and G32A G35U U39A U143A, with 1.24; and G33U A64G A69U A77U A129U, with 0.05.

In the case of G32A A43G A57G G75A A121G, the self-cleavage stood at 0.53. A31G A136C G139A: the self-cleavage was 0.9. As for G35C U39G U45A A141G, the self-cleavage was 2.09. Turning to G34A A94U A117U G125A, the self-cleavage was 0.22.

Turning to G35A U62A A64G, the self-cleavage was 0.02. As to G35C U39A U45C A129C U132C U143A, the self-cleavage is 1.06. For the variant A31G G40A U85C, the self-cleavage was determined as 0.14. Turning to G34A U47C A77G, the self-cleavage turned out to be 1.88. Regarding G34A U91C A129G A141G, the self-cleavage was 0.46. With G33A A138G A141G, the self-cleavage was found to be 1.57. A31U A79G A121G: the self-cleavage was 0.

G32A A65G A141G: the self-cleavage worked out at 0.05. A31G U62A U108C: the self-cleavage was 0.03. Turning to A31U U62C A79G C146U, the self-cleavage amounted to 0.13. With G32U G53U U73C, the self-cleavage was determined as 1.18. As for G33A A43G G74A U109C, the self-cleavage is 1.01. For G32U G35A A77U U85C U109C G127A A129G, the self-cleavage turned out to be 0.04. As to A31G C38U A43C C51U, the self-cleavage came out at 0.88.

Consider G32C A57G A140U, for which the self-cleavage turned out to be 0.81. Under G32A A50G A65G A79G stands 0; under G32C A42U G72A U85C, 0.06. As for A31G G126U U130C, the self-cleavage was found to be 1.75.

Take A31U A64U U134C: the self-cleavage turned out to be 0.51.

The values are drawn from the RNAGym collection of RNA variant scans (doi:10.7554/elife.90254).
